Results from PubChem BioAssay AID686979 (National Center for Advancing Translational Sciences (NCATS), 2013).
The campaign covered roughly 420,000 compounds. About 50,000 (12%) were called active. Inconclusive means that the source gave no clear call. Such entries were picked first, then a sample of the others. The call rests on the fitted dose curve; in most records, active means well fitted inhibition curve with a large enough effect; inconclusive means small, poorly fitted or top-dose-only effect; inactive means flat fitted curve, though single readings scatter. No potency is given beside an inconclusive call; the fits are too rough.

Experiment: qHTS for Inhibitors of human tyrosyl-DNA phosphodiesterase 1 (TDP1): qHTS in cells in presence of CPT; further: nearly all actives have a fitted effect of over 55% in size
Conditions: chicken DT40 Tdp1-/-;hTDP1 cells + 20 nM CPT, ATP luminescence, 48 h; activity change, negative = growth inhibition: at 46.2 µM (top of the series) unless noted
In short: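 Chicken DT40 Tdp1-/- cells stably complemented with human TDP1 were seeded at 400 cells/well in medium containing 20 nM camptothecin, exposed to pin-transferred compounds, and grown at 37 °C for at least 48 hr. Viability was read as ATP luminescence.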
On the % scale 0 is the no-effect control and ±100 the full control effect; potency means the concentration at half of the fitted maximal effect; tags describe the fitted curve by direction and shape.

**Q.** With `Clc1cccc2c1CN(C1=NCCN1)C2` as the compound, how does the Potency read?
**A.** inconclusive [inhibitor, single point]

**Q.** For `Cc1ccc(-c2cnc(SCCNC(=O)c3ccco3)[nH]2)cc1`, which Potency is on record?
**A.** inconclusive [inhibitor, single point]

**Q.** Which Potency does the source give for `CCCCOc1ccc(CNC(=O)Cc2ccc(NC(=O)N3CCCCc4ccccc43)cc2)cc1` here?
**A.** active: 14.6 µM

**Q.** For `COc1ccc(CNC(=O)CN(C(=O)c2csnn2)c2ccc(C(C)=O)cc2)cc1`, which Potency is on record?
**A.** inactive

**Q.** With `CN(Cc1ccccc1F)C(=O)C(Cc1ccccc1)NC(=O)c1ccccc1` (centres undefined) as the compound, how does the Potency read?
**A.** active: 29.1 µM

**Q.** Which Potency does the source give for `Cc1ccc(CN2CCN(Cc3c(C)nn(-c4ccc(F)cc4)c3C)CC2CCO)o1` (centres undefined) here?
**A.** inactive

**Q.** With `CC1CCC/C(=N\NC(=O)c2ccncc2)C1` (centres undefined) as the compound, how does the Potency read?
**A.** inactive

**Q.** With `Cc1cccc[n+]1CC(=O)c1ccc2c(c1)OCCO2` as the compound, how does the Potency read?
**A.** inconclusive [inhibitor, single point]

**Q.** For `Cc1ccc(N2C(=O)N(CC(=O)Nc3ccc(F)c(F)c3)C(=O)C2C)cc1` (centres undefined), which Potency is on record?
**A.** inconclusive [inhibitor, single point]

**Q.** Which Potency does the source give for `COc1ccc(-c2nc(SCC(=O)N3CCN(c4ccc(F)cc4)CC3)n[nH]2)cc1` here?
**A.** inactive

**Q.** For `Cc1ccc(-c2csc(NC(=O)c3cccc(C)c3)c2C(=O)O)cc1`, which Potency is on record?
**A.** inconclusive [inhibitor, single point]

**Q.** Which Potency does the source give for `Cc1cc(C)c2cc(C#N)c(NCCNC(=O)c3ccccc3)nc2c1` here?
**A.** inconclusive [inhibitor, single point]

**Q.** With `CN1CCN(c2ncc3nc(CCc4ccccc4)c(=O)n(C4CC4)c3n2)CC1` as the compound, how does the Potency read?
**A.** inconclusive [inhibitor, single point]

**Q.** For `Cc1ccnc(NC(=O)c2cccc(S(=O)(=O)N3CCN(c4ccc(F)cc4)CC3)c2)c1`, which Potency is on record?
**A.** inconclusive [inhibitor, single point]

**Q.** Which Potency does the source give for `Cn1nc(C(F)(F)F)c(-c2ccc(F)cc2)c1NC(=O)c1ccco1` here?
**A.** inactive

**Q.** For `CC(C)n1cc(/C=N\NC(=O)c2cc3c(ccc4ccccc43)o2)c2ccccc21`, which Potency is on record?
**A.** inconclusive [inhibitor, partial curve]

**Q.** For `COc1ccc(CCNC(=O)c2ccc3c(c2)N(Cc2cc(C)ccc2C)C(=O)c2ccccc2S3=O)cc1OC` (centres undefined), which Potency is on record?
**A.** active: 9.2 µM

**Q.** For `Nc1nonc1-n1nnc(C(=O)N/N=C/c2ccc(O)cc2)c1COc1ccc(F)cc1`, which Potency is on record?
**A.** inactive

**Q.** Which Potency does the source give for `Cc1cc(C)c(NC(=O)CNC(=O)COC(=O)Cc2ccccc2C)c(C)c1` here?
**A.** inactive

**Q.** For `COc1ccc(N2C(=O)c3ccccc3NC2c2ccc(OC)c(Cn3cc([N+](=O)[O-])cn3)c2)cc1` (centres undefined), which Potency is on record?
**A.** inconclusive [inhibitor, single point]

**Q.** With `Cn1c(Sc2ccccc2Cl)c(C=O)c2ccccc21` as the compound, how does the Potency read?
**A.** inconclusive [inhibitor, single point]

**Q.** For `CCOc1ccccc1/C=C/c1onc(C)c1S(=O)(=O)N1CCC(C(=O)NC(C)C)CC1`, which Potency is on record?
**A.** inconclusive [inhibitor, single point]

**Q.** With `O=C1C(CCc2ccccc2)ON=C(c2cnccn2)N1Cc1ccc(F)cc1` (centres undefined) as the compound, how does the Potency read?
**A.** inconclusive [inhibitor, single point]

**Q.** For `CCOC(=O)c1c(Nc2ccc(F)cc2)nnc(-c2ccccc2)c1-c1ccccc1`, which Potency is on record?
**A.** active: 23.1 µM

**Q.** Which Potency does the source give for `O=C(Nc1ccc(Cl)cn1)c1ccc(COc2ccccc2Br)o1` here?
**A.** inconclusive [inhibitor, single point]

**Q.** For `Cc1c(N2CCCCC2)[nH]c2ccccc12`, which Potency is on record?
**A.** inconclusive [inhibitor, single point]

**Q.** For `Cc1cccc(Oc2cc(NC(=O)c3ccccc3)cc([N+](=O)[O-])c2)c1`, which Potency is on record?
**A.** inconclusive [inhibitor, single point]

**Q.** With `CC(C)(C)OC(=O)N1CCC(c2c(C(=O)N3CCN(c4ccccc4)CC3)cnn2-c2ccccc2)CC1` as the compound, how does the Potency read?
**A.** inconclusive [inhibitor, single point]

**Q.** Which Potency does the source give for `CCn1c(=O)n(-c2ccc(F)cc2)c(=O)c2sc3ccccc3c21` here?
**A.** inactive

**Q.** For `O=C(O)c1ccccc1SCC(=O)N1CCc2ccccc21`, which Potency is on record?
**A.** inconclusive [inhibitor, full curve]

**Q.** For `COc1ccc(NC(=O)CCNC(=O)N2CC(=O)Nc3ccccc32)cc1OC`, which Potency is on record?
**A.** inactive

**Q.** For `CCOC(=O)c1ccc(NC(=S)N(CCCN2CCCC2)Cc2ccco2)cc1`, which Potency is on record?
**A.** inconclusive [inhibitor, single point]

**Q.** With `COc1ccc(Cc2cc(-c3ccc(F)cc3)n[nH]c2=O)cc1` as the compound, how does the Potency read?
**A.** inconclusive [inhibitor, single point]

**Q.** With `C[C@H]1CN([C@@H](C)CO)C(=O)Cc2cc(NS(C)(=O)=O)ccc2O[C@@H]1CN(C)Cc1ccc(Cl)c(Cl)c1` as the compound, how does the Potency read?
**A.** inconclusive [inhibitor, single point]

**Q.** With `Cc1cc(Br)ccc1NC(=O)Cn1cnc2sc(C)c(S(=O)(=O)N3CCN(C)CC3)c2c1=O` as the compound, how does the Potency read?
**A.** inconclusive [inhibitor, single point]

**Q.** With `CC1(C)SC(=S)N(/N=C/c2cccnc2)C1N(O)C(=O)Nc1ccccc1` (centres undefined) as the compound, how does the Potency read?
**A.** inactive

**Q.** For `COc1ccccc1C(C(=O)c1ccccc1)c1ccc2ccccc2c1` (centres undefined), which Potency is on record?
**A.** inconclusive [inhibitor, single point]

**Q.** With `O=C(c1ccccc1Cl)N(Cc1ccco1)c1ccccn1` as the compound, how does the Potency read?
**A.** inconclusive [inhibitor, single point]

**Q.** With `COc1cccc(OC)c1C(=O)NC(C)CCc1ccccc1` (centres undefined) as the compound, how does the Potency read?
**A.** inactive

**Q.** Which activity change, negative = growth inhibition does the source give for `Cc1nn(C(C)C(=O)NCCCc2ccccc2)c(=O)c2nn(-c3ccccc3)c(C)c12` (centres undefined) here?
**A.** inconclusive: -30.7% [inhibitor]

**Q.** Which Potency does the source give for `Cc1nc([N+](=O)[O-])cn1CC(=O)c1ccc(Br)cc1` here?
**A.** inactive

**Q.** For `Cc1cc(-c2csc(Nc3ccccn3)n2)ccc1F`, which Potency is on record?
**A.** inconclusive [inhibitor, single point]

**Q.** Which Potency does the source give for `Cc1cccc(C(CC(=O)N2CCCCC2)c2ccccc2)c1O` (centres undefined) here?
**A.** inactive

**Q.** Which Potency does the source give for `Nc1c(NCCN2CCOCC2)c2ccccc2oc1=O` here?
**A.** active: 5.17 µM

**Q.** For `CCOC(=O)c1cc(-c2ccc(C)o2)n[nH]1`, which Potency is on record?
**A.** inconclusive [inhibitor, partial curve]

**Q.** With `CC(=O)N1N=C(c2ccccc2)CC1c1ccc2c(c1)OCO2` (centres undefined) as the compound, how does the Potency read?
**A.** inconclusive [inhibitor, single point]

**Q.** Which Potency does the source give for `Cc1cc(NC2CCCC2)n2nc(C)c(-c3ccccc3)c2n1` here?
**A.** inconclusive [inhibitor, single point]

**Q.** With `Nc1ccc2nc(-c3ccccc3)cnc2c1` as the compound, how does the Potency read?
**A.** inactive

**Q.** Which Potency does the source give for `O=C(N/N=C/c1cc(Cl)ccc1O)c1ccncc1` here?
**A.** active: 5.8 µM

**Q.** Which Potency does the source give for `COc1ccccc1N1C(N)=NC(N)=NC1(C)C` here?
**A.** inactive

**Q.** For `COc1ccc(Nc2ccccc2NC(=O)c2ccccc2Br)cc1`, which Potency is on record?
**A.** inactive

**Q.** Which Potency does the source give for `CS(=O)(=O)c1ccc2nc(NC(=O)C3C4C=CC(C4)C3C(=O)O)sc2c1` (centres undefined) here?
**A.** inactive

**Q.** Which Potency does the source give for `O=C(Nc1ccc(CN2CCCCC2)cc1)c1cc(Br)ccc1Cl` here?
**A.** inactive

**Q.** With `CCCCNC(=O)c1nc(-c2cc3ccccc3[nH]2)oc1-c1ccccc1` as the compound, how does the Potency read?
**A.** inconclusive [inhibitor, single point]

**Q.** Which Potency does the source give for `N#CCCn1c(=O)c(-c2ccc(F)cc2)nc2cnc(Oc3ccccc3)nc21` here?
**A.** inactive

**Q.** With `COc1ccccc1NC(=O)CSc1nnnn1C1CCCC1` as the compound, how does the Potency read?
**A.** inactive

**Q.** Which Potency does the source give for `CCOC(=O)c1cnc2cc(-c3ccc(C(C)(C)C)cc3)nn2c1N` here?
**A.** inconclusive [inhibitor, partial curve]

**Q.** For `CCCCOc1ccc(C(=O)NCC(=O)NCC(c2ccc(F)cc2)N2CCOCC2)cc1` (centres undefined), which Potency is on record?
**A.** inconclusive [inhibitor, single point]

**Q.** Which Potency does the source give for `Cc1ccc(O)c(N=Nc2ccc(S(=O)(=O)N3CCOCC3)cc2)c1` here?
**A.** inactive

**Q.** Which Potency does the source give for `Cn1ccc2c(N3CCCCCC3)cc3c(c21)C1CCC3O1` (centres undefined) here?
**A.** active: 20.6 µM

**Q.** With `O=C(CCN1C(=O)/C(=C/c2ccccc2Cl)SC1=S)NC1CCCC1` as the compound, how does the Potency read?
**A.** active: 8.2 µM

**Q.** For `CC(Oc1ccccc1)C(=O)Nc1nnc(C2CCCCC2)s1` (centres undefined), which Potency is on record?
**A.** inconclusive [inhibitor, partial curve, poor fit]

**Q.** Which Potency does the source give for `COc1ccc(Cl)cc1NC(=O)Cn1c(=O)n(Cc2cccs2)c(=O)c2cccnc21` here?
**A.** inconclusive [inhibitor, single point]

**Q.** For `Cc1nc2cccnc2n1C1CCN(S(=O)(=O)N(C)C)CC1`, which Potency is on record?
**A.** inactive

**Q.** With `COc1ccc(CNC(=O)Cc2c(C)c3c(cc(C)c4c(C)coc43)oc2=O)cc1OC` as the compound, how does the Potency read?
**A.** inactive

**Q.** For `N/C(=N\N=C/c1ccc(F)cc1)N/N=C\c1ccc(F)cc1`, which Potency is on record?
**A.** inconclusive [inhibitor, single point]

**Q.** Which Potency does the source give for `COC(=O)c1ccccc1NC(=O)c1ccc(COc2cc(C)cc(C)c2)o1` here?
**A.** inconclusive [inhibitor, single point]

**Q.** For `COc1ccc(CCCc2nnc(SCC(=O)Nc3cc(C)ccc3C)o2)cc1`, which Potency is on record?
**A.** inconclusive [inhibitor, single point]

**Q.** Which Potency does the source give for `CNc1ccccc1C(=O)N1CCc2c([nH]c3ccccc23)C1=O` here?
**A.** inconclusive [inhibitor, single point]

**Q.** Which Potency does the source give for `Cc1[nH]c2ccccc2c1C(=O)CN1CC(C)CC(C)C1` (centres undefined) here?
**A.** active: 11.6 µM

**Q.** For `COc1ccccc1N1CCN(C(=O)c2ccc(-c3nc4ccccc4s3)o2)CC1`, which Potency is on record?
**A.** active: 23.1 µM

**Q.** Which Potency does the source give for `CC1(C)NC(=O)N(CCOCCOc2ccc3ccccc3c2Br)C1=O` here?
**A.** inconclusive [inhibitor, single point]

**Q.** With `Fc1ccc(/C=C/c2nccc3ccccc23)cc1` as the compound, how does the Potency read?
**A.** active: 7.08 µM

**Q.** With `O=c1c(S(=O)(=O)c2ccc(Cl)cc2)cn(Cc2ccccc2)c2ccc(F)cc12` as the compound, how does the Potency read?
**A.** inconclusive [inhibitor, single point]
